The other results are listed elsewhere or left out. Many values rest on one well or one pass, so single values are uncertain.
Columns and labels:
Assay in all cases: cell count relative to DMSO control; melanoma cells; higher = more viable cells
Details in all cases: library dose: standard library concentration; 72 h
[1] = system: G361
[2] = system: IPC-298
[3] = system: IST-MEL1
[4] = system: LOXIMVI
[5] = system: MEL-HO
[6] = system: MeWo
[7] = system: RPMI7951
[8] = system: RVH-421
[9] = system: SkMel28
[10] = system: SkMel30
[11] = system: SkMel5
[12] = system: UACC257
[13] = system: UACC62
[14] = system: WM115
[15] = system: WM1716
[16] = system: WM3526
[17] = system: SkMel2
[18] = system: WM1745
[19] = system: LB2518-MEL
[20] = system: MZ2-MEL
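Note: cells treated in 1,536-well plates, then fixed and DAPI-stained, with nuclei counted from automated high-throughput microscope images.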

Row | Compound | cell count [1] | cell count [2] | cell count [3] | cell count [4] | cell count [5] | cell count [6] | cell count [7] | cell count [8] | cell count [9] | cell count [10] | cell count [11] | cell count [12] | cell count [13] | cell count [14] | cell count [15] | cell count [16] | cell count [17] | cell count [18] | cell count [19] | cell count [20]
1 | NC(=O)c1ccc(N(C(N)=O)c2c(F)cccc2F)nc1-c1ccc(F)cc1F + CCc1ccc(CCOc2ccc(CC3SC(=O)NC3=O)cc2)nc1 [pioglitazone] (first compound 2 µM, partner dose 10 µM) | 79.3% | 96.6% | 106% | 111% | 93.2% | 88.7% | 91.9% | 97.1% | 74.7% | 116% | 87.2% | 107% | 81.3% | 93.6% | 107% | 103% | – | – | – | –
2 | CCCCCCCCc1ccc(CCC(N)(CO)CO)cc1 [fingolimod] + CC(C)(C)c1cnc(CSc2cnc(NC(=O)C3CCNCC3)s2)o1 [SNS-032] (first compound 10 µM, partner dose 0.05 µM) | – | 54.6% | 3.46% | 4.45% | 0.866% | 10.9% | – | 1.6% | – | 9.73% | 53.5% | 61.9% | 10.6% | 13.2% | 18.2% | 21.9% | 0.483% | 1.41% | – | –
3 | CCCCCCCCc1ccc(CCC(N)(CO)CO)cc1 [fingolimod] + Cc1ccc(NC(=O)c2cccc(N(C)C)c2)cc1NC(=O)c1ccc(O)cc1 [ZM336372] (first compound 10 µM, partner dose 10 µM) | 0.309% | 73.2% | 2.43% | 0.433% | 2.13% | 9.08% | 0.921% | 3.07% | – | 10.3% | 29% | 61.5% | 13.8% | 8.35% | 22.5% | 8.88% | 29.4% | 41% | – | –
4 | CN(NC(=O)CC(=O)NN(C)C(=S)c1ccccc1)C(=S)c1ccccc1 + N#Cc1c(O)c2c(-c3ccc(-c4ccccc4O)cc3)csc2[nH]c1=O [A769662] (first compound 0.03 µM, partner dose 10 µM) | 41.8% | 57.7% | 26.9% | 204% | 75.1% | 19.5% | 56.6% | 65.7% | 5.22% | 95.5% | 58.7% | 94.9% | 59.2% | 32.7% | 85.1% | 83.6% | 56.4% | 11.1% | – | –
5 | CCCCCCCCc1ccc(CCC(N)(CO)CO)cc1 [fingolimod] + COc1cc(N2CCC(N3CCN(C)CC3)CC2)ccc1Nc1ncc(Cl)c(Nc2ccccc2S(=O)(=O)C(C)C)n1 [NVP-TAE684] (first compound 10 µM, partner dose 0.4 µM) | 0.766% | 49.6% | 24.9% | 34.4% | 35.9% | 25.8% | 4.21% | 63.4% | 2.98% | 11.2% | 51.3% | 76.6% | 29% | 8.37% | 47% | 33.6% | – | – | – | –
6 | CCc1ccc(CCOc2ccc(CC3SC(=O)NC3=O)cc2)nc1 (centres undefined) [pioglitazone] + O=C(O)C(=O)Nc1sc2c(c1C(=O)O)CCNC2 [TCS401] (first compound 10 µM, partner dose 8.33333 µM) | 96.2% | 87.4% | 99.9% | 86.5% | 88.7% | 86% | 85.5% | 88.3% | 79.2% | 116% | 60.7% | 87.4% | 137% | 74.8% | 112% | 103% | 95.5% | 69% | – | –
7 | CCCCCCCCc1ccc(CCC(N)(CO)CO)cc1 [fingolimod] + Nc1ncn([C@H]2C[C@H](O)[C@@H](CO)O2)c(=O)n1 [decitabine] (first compound 10 µM, partner dose 0.5 µM) | 1.08% | 32% | 8.15% | 19.4% | 2.53% | 42.4% | 1.85% | 11.8% | – | 17.7% | 62.3% | 63.1% | 20.9% | 15% | 38% | 35.3% | 0.107% | 6.5% | 0.187% | 1.07%
8 | CCCCCCCCc1ccc(CCC(N)(CO)CO)cc1 [fingolimod] + O=c1cc(-c2cccc3c2Sc2ccccc2S3)oc(N2CCOCC2)c1 [KU55933] (first compound 10 µM, partner dose 5 µM) | 0.454% | 39.2% | 9.52% | 7.3% | 4.51% | 6.21% | 7.86% | 9.57% | 2.62% | 11.6% | 28.5% | 50.9% | 9.96% | 12.9% | 13.2% | 14.6% | – | – | – | –
9 | CCCCCCCCc1ccc(CCC(N)(CO)CO)cc1 [fingolimod] + O=C(O)C(=O)Nc1sc2c(c1C(=O)O)CCNC2 [TCS401] (first compound 10 µM, partner dose 8.33333 µM) | 0.76% | 53.3% | 10.9% | 46% | 10.8% | 28.8% | 4.3% | 2.97% | – | 12.1% | 56.7% | 73.4% | 22.4% | 18.5% | 26.6% | 60% | 0.31% | – | 0.181% | 43.5%
10 | CCCCCCCCc1ccc(CCC(N)(CO)CO)cc1 [fingolimod] + Clc1ccc(Nc2nnc(Cc3ccncc3)c3ccccc23)cc1 [vatalanib] (first compound 10 µM, partner dose 10 µM) | 0.647% | 1.33% | 4.59% | 6.51% | 0.339% | 8.19% | 0.8% | 3.34% | – | 5.78% | 24.7% | 51.4% | 15.1% | 12.7% | 8.44% | 10.1% | 0.308% | 3.74% | 0.182% | 1.36%
11 | CCCCCCCCc1ccc(CCC(N)(CO)CO)cc1 [fingolimod] + COc1ccc(COc2ccc(Cc3cnc(N)nc3N)cc2OC)cc1 [GW2580] (first compound 10 µM, partner dose 5 µM) | 0.744% | 89.5% | 17.5% | 71.7% | 4.61% | 27.7% | 9.6% | 14.9% | 47% | 12% | 50.4% | 67.6% | 34.9% | 22.4% | 43% | 31.1% | 6% | – | – | –
12 | NC(=O)c1ccc(N(C(N)=O)c2c(F)cccc2F)nc1-c1ccc(F)cc1F + Oc1cc(-c2nc(-c3ccccc3)[nH]c2-c2ccncc2)ccc1Cl [L779450] (first compound 2 µM, partner dose 1 µM) | 58.7% | 79.7% | 95.3% | 133% | 90.6% | 85.2% | 86.5% | 87% | 40.8% | 81.8% | 70.3% | 82.8% | 39% | 46.1% | 83.9% | 62.2% | 36.4% | – | 88.7% | 88.4%
13 | CCCCCCCCc1ccc(CCC(N)(CO)CO)cc1 [fingolimod] + Cc1cc(N2CCOCC2)cc2[nH]c(-c3c(NC[C@@H](O)c4cccc(Cl)c4)cc[nH]c3=O)nc12 [BMS536924] (first compound 10 µM, partner dose 1 µM) | 0.587% | 57.7% | 5.28% | 5.3% | 2.88% | 14.5% | – | 1.54% | – | 12.1% | 35.2% | 68.8% | 18.2% | 10.9% | 6.65% | 11.8% | 0.0965% | 1.78% | 0.174% | 24.7%
14 | NC(=O)c1ccc(N(C(N)=O)c2c(F)cccc2F)nc1-c1ccc(F)cc1F + CO[C@H]1C[C@@H]2CC[C@@H](C)[C@@](O)(O2)C(=O)C(=O)N2CCCC[C@H]2C(=O)O[C@H]([C@H](C)C[C@@H]2CC[C@@H](OCCO)[C@H](OC)C2)CC(=O)[C@H](C)/C=C(\C)[C@@H](O)[C@@H](OC)C(=O)[C@H](C)C[C@H](C)/C=C/C=C/C=C/1C [everolimus] (first compound 2 µM, partner dose 0.1 µM) | 77.3% | 63.2% | 82.8% | 42.3% | 81.8% | 72.8% | 78.4% | 82.5% | 67.5% | 70.6% | 53.8% | 96.9% | 62.7% | 67.4% | 77.9% | 67.6% | 76.6% | 76% | – | –
15 | COc1cc2c(Oc3ccc4[nH]c(C)cc4c3F)ncnc2cc1OCCCN1CCCC1 [cediranib] + c1cc(-c2cnn3cc(-c4ccc(OCCN5CCCCC5)cc4)cnc23)ccn1 [Dorsomorphin] (first compound 2 µM, partner dose 2 µM) | 62.1% | 88.9% | 96.2% | 85.4% | 96% | 85.3% | 82.1% | 80.4% | 66% | 86.8% | 66.4% | 91% | 63.3% | 77% | 82.1% | 71% | – | 56.3% | – | –
16 | CCCCCCCCc1ccc(CCC(N)(CO)CO)cc1 [fingolimod] + CCCCCCCCCCCC1=C(O)C(=O)C=C(O)C1=O [Embelin] (first compound 10 µM, partner dose 6 µM) | 1.11% | 61.7% | 25.4% | 61.8% | 54.5% | 54.4% | 48% | 43.4% | – | 18.2% | 60% | 59.9% | 17.5% | 43.5% | 60.7% | 29.6% | 0.208% | – | 0.413% | 1.44%
